# PubChem BioAssay AID624417 (National Center for Advancing Translational Sciences (NCATS), 2012)
# Out of some 410,000 compounds screened, about 6,400 (1.6%) were called active. Inconclusive means that the source gave no clear call. Such entries were picked first, then a sample of the others. Calls come from the whole dose curve; as a rule, active = well fitted inhibition curve with a large enough effect; inconclusive = small, poorly fitted or top-dose-only effect; inactive = no such curve, though single readings can be large or run the other way. Potencies of inconclusive entries are left out as doubtful fits.
# Molecular target: Glucagon-like peptide 1 receptor (Homo sapiens) (UniProt P43220)
# UniProt P43220, sequence (P43220 whole entry, looked up): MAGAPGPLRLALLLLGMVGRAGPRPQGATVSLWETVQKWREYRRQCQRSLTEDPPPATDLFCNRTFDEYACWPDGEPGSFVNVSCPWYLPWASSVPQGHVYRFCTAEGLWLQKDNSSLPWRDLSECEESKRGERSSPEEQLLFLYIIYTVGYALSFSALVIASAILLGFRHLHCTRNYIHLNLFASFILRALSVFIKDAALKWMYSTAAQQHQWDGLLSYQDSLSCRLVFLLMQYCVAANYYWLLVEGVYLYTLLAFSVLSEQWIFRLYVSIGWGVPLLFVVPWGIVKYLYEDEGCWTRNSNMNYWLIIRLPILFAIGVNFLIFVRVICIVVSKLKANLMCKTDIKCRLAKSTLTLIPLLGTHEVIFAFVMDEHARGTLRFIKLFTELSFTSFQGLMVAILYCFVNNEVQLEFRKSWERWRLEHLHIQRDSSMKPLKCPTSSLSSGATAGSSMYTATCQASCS
# Test: qHTS of GLP-1 Receptor Inverse Agonists (Inhibition Mode); note: nearly all actives have a fitted effect of over 55% in size
# Conditions: HEK293 GLP-1R CRE-luciferase, luminescence, 24 h, GLP-1R form is constitutively active; activity change, negative = inhibition: at 38.3 µM (top of the series) unless noted
# In short: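 Cells are plated, allowed 12 hours at 37 deg C, then treated with compounds for 24 hr before luciferase detection reagent is added and luminescence is read after 12 min at room temperature. The HEK293 line carries constitutively active GLP-1R with a cAMP-responsive reporter.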
# % is set by controls: 0 for no effect and ±100 for the full control effect; potency is the fitted concentration of half-maximal effect; tags give direction and shape of the fitted curve.
Compound,Potency,"activity change, negative = inhibition"
Cc1nc(-c2ccc(C(=O)Nc3cccc(Br)c3)cc2)cs1,"inconclusive [inhibitor, partial curve, poor fit]",–
CCCCCCc1cc2cc(S(=O)(=O)c3ccc(F)cc3)c(=O)oc2cc1O,–,inactive: -12.6%
C=C1CCN([C@H](C(=O)NCc2ccc(Cl)c(Cl)c2)C(C)C)S(=O)(=O)c2ccccc21,active: 10 µM,–
Cc1cc([N+](=O)[O-])nn1Cc1ccc(C(=O)N/N=C/c2ccc(O)cc2O)cc1,"inconclusive [inhibitor, full curve]",–
COc1cccc(OC)c1OC(=O)/C=C/c1ccc(C)o1,"inconclusive [inhibitor, partial curve]",–
O=C1CCSc2ccc(S(=O)(=O)Nc3cccc(C(F)(F)F)c3)cc2N1,"inconclusive [inhibitor, partial curve]",–
O=C(Nc1ccc(Br)cc1)c1cc(S(=O)(=O)Nc2ccccn2)ccc1Cl,"inconclusive [inhibitor, single point]",–
CSc1ccc(C(=S)N2CCN(Cc3ccccc3)CC2)cc1,"inconclusive [inhibitor, single point]",–
CCOc1ccc(/C(O)=C2/C(=O)C(=O)N(c3ccccn3)C2c2ccc(F)cc2)c(C)c1 (configuration not stated),"inconclusive [inhibitor, partial curve, poor fit]",–
Fc1cccc(Cl)c1Cn1nnc(-c2ccc(N3CCOCC3)cc2)n1,–,inactive: 31.6%
CCc1nc(Nc2ccc(OC)c(OC)c2)c2nnn(Cc3ccccc3Cl)c2n1,"inconclusive [inhibitor, partial curve, poor fit]",–
CC(C)C1Cc2c(sc(NC(=S)NC(=O)c3ccccc3)c2C#N)CO1 (configuration not stated),–,inactive: 38.4%
Cc1ccc(C)c(CN2C(=O)c3ccccc3S(=O)c3ccc(C(=O)NCCCN4CCCC4)cc32)c1 (configuration not stated),"inconclusive [inhibitor, partial curve, poor fit]",–
CC(C)NC(=O)C(Sc1ccccc1)c1ccccc1 (configuration not stated),–,inactive: -23.8%
Cc1ccc(C2=NN(C(=O)CCl)C(c3cccs3)C2)o1 (configuration not stated),active: 3.16 µM,–
c1ccc(CNc2nc(NCc3ccco3)nc(N3CCOCC3)n2)cc1,"inconclusive [inhibitor, single point]",–
CCOc1ccc(OCC)c(NC(=O)c2cc(-c3cccs3)nc3ccccc23)c1,"inconclusive [inhibitor, full curve, poor fit]",–
c1csc(-c2nc(NCCCN3CCOCC3)c3ccccc3n2)c1,"inconclusive [inhibitor, partial curve, poor fit]",–
C=CCNC(=O)c1onc(CSc2cccc3ccccc23)c1C(=O)O,"inconclusive [inhibitor, partial curve]",–
COCCn1c(SCC(=O)N2CCC(C)CC2)nc2c(c1=O)SCC2,"inconclusive [inhibitor, partial curve]",–
O=C(Nc1nc2cc3c(cc2s1)OCCO3)c1cccs1,"inconclusive [inhibitor, partial curve, poor fit]",–

Compound,Potency,"activity change, negative = inhibition"
CCC(=O)c1ccc(OCC(O)CN2CCN(C(c3ccccc3)c3ccccc3)CC2)cc1 (configuration not stated),–,inactive: 0%
CCc1cccc(C)c1NC(=O)Cn1ncc2c3ccccc3n(Cc3ccccc3)c2c1=O,–,inactive: -4.09%
CN1CCN2c3ccccc3Cc3ccccc3C2C1 (configuration not stated),"inconclusive [inhibitor, single point]",–
CCOc1ccc2c(c1)c(=O)c(S(=O)(=O)c1ccc(CC)cc1)cn2Cc1cccc(Cl)c1,–,inactive: 1.46%
CCOC(=O)C1(Cc2cccc(Cl)c2)CCCN(C(=O)c2ccco2)C1 (configuration not stated),"inconclusive [inhibitor, single point]",–
CCCSc1ncnc2c1c(-c1ccccc1)cn2-c1ccccc1OC,–,inactive: 4.11%
COCCN(C(=O)COC(=O)CCOc1cccc(C)c1)c1c(N)n(Cc2ccccc2)c(=O)[nH]c1=O,"inconclusive [inhibitor, single point]",–
COc1ccc(C(=O)NC(=S)Nc2ccc(N3CCOCC3)c(Cl)c2)cc1[N+](=O)[O-],"inconclusive [inhibitor, partial curve]",–
O=C(N/N=C/c1ccc(-c2ccccc2Cl)o1)c1ccccc1,"inconclusive [inhibitor, full curve]",–
CC(NC(=O)c1cccc(S(=O)(=O)N2CCCCCC2)c1)c1ccccc1 (configuration not stated),"inconclusive [inhibitor, single point]",–
c1cncc(-c2nc(N3CCCCCC3)c3ccccc3n2)c1,–,inactive: -1.85%
O=C1NN(c2ccccc2)C(=O)/C1=C\c1ccc(-c2cc([N+](=O)[O-])ccc2O)o1,"inconclusive [inhibitor, partial curve]",–
Cc1ccc(NC(=O)COC(=O)C2(C)CC2(Cl)Cl)cc1S(=O)(=O)N1CCOCC1 (configuration not stated),"inconclusive [inhibitor, single point]",–
CCN(CC)C(=O)C1CCCN(c2ncnc3c2c(-c2ccccc2)cn3-c2cccc(C)c2)C1 (configuration not stated),–,inactive: -1.9%
COc1ccccc1CN1CC(C(=O)NCc2cc(F)cc(C(F)(F)F)c2)CCC1=O (configuration not stated),"inconclusive [inhibitor, partial curve]",–
CCCCn1c(N)c(N(CC)C(=O)c2cc(CC)c(C)s2)c(=O)[nH]c1=O,–,inactive: 9.63%
O=C(NCC1CC1)c1ccc(Nc2nc3ccc(Br)cc3[nH]2)cc1,"inconclusive [inhibitor, partial curve, poor fit]",–
CN(C)CCC1c2ccc(Cl)cc2CCc2cccnc21 (configuration not stated) (tested in a mixture with another compound),"inconclusive [inhibitor, partial curve, poor fit]",–
CCn1c(C(C)NC(=O)Cc2ccccc2)nc2ccccc21 (configuration not stated),"inconclusive [inhibitor, single point]",–
O=C(CN1C(=O)CSc2ccc(S(=O)(=O)N3CCCC3)cc21)NCc1ccc(F)cc1Cl,"inconclusive [inhibitor, single point]",–
CCCCN(C(=O)c1ccccc1OCc1ccc(F)cc1)c1c(N)n(CC(C)C)c(=O)[nH]c1=O,"inconclusive [inhibitor, partial curve, poor fit]",–
